Changes are numbered by the printed parent chain; changes in the protein carry UniProt numbers. The list shows a part of the results.
T1: RBFOX1 RRM (Homo sapiens, UniProt Q9NWB1 109-208)
T1 sequence: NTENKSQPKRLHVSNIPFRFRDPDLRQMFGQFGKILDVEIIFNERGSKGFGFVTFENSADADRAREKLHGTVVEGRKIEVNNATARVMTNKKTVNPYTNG

B1: GAAUGAA (DNA:RNA)
RNA: GGGAGACCGGAAUUCAGAUUGUCCGAAUGAAUUAAAUCCCGUCGUAGCCACCA
DNA 1: CAATCTGAATTCCGGTCTCCC
DNA 2: TGGTGGCTACGACGGGATT
B2: ACUAUCC (DNA:RNA)
RNA: GGGAGACCGGAAUUCAGAUUGUCCACUAUCCUUAAAUCCCGUCGUAGCCACCA
DNA 1: CAATCTGAATTCCGGTCTCCC
DNA 2: TGGTGGCTACGACGGGATT
B3: GGGUUGU (DNA:RNA)
RNA: B1 RNA with A26G, A27G, G29U, A30G, A31U
DNA 1: CAATCTGAATTCCGGTCTCCC
DNA 2: TGGTGGCTACGACGGGATT
B4: UGUUCAG (DNA:RNA)
RNA: B1 RNA with G25U, A26G, A27U, G29C, A31G
DNA 1: CAATCTGAATTCCGGTCTCCC
DNA 2: TGGTGGCTACGACGGGATT
B5: CGGUGUU (DNA:RNA)
RNA: B1 RNA with G25C, A26G, A27G, A30U, A31U
DNA 1: CAATCTGAATTCCGGTCTCCC
DNA 2: TGGTGGCTACGACGGGATT
B6: AUUUAUC (DNA:RNA)
RNA: B2 RNA with C26U, A28U, U29A, C30U
DNA 1: CAATCTGAATTCCGGTCTCCC
DNA 2: TGGTGGCTACGACGGGATT
B7: GACCGAC (DNA:RNA)
RNA: B1 RNA with A27C, U28C, A31C
DNA 1: CAATCTGAATTCCGGTCTCCC
DNA 2: TGGTGGCTACGACGGGATT
B8: CAGGGCG (DNA:RNA)
RNA: B1 RNA with G25C, A27G, U28G, A30C, A31G
DNA 1: CAATCTGAATTCCGGTCTCCC
DNA 2: TGGTGGCTACGACGGGATT
B9: CGCAGCC (DNA:RNA)
RNA: B2 RNA with A25C, C26G, U27C, U29G
DNA 1: CAATCTGAATTCCGGTCTCCC
DNA 2: TGGTGGCTACGACGGGATT
B10: ACCUUGG (DNA:RNA)
RNA: B2 RNA with U27C, A28U, C30G, C31G
DNA 1: CAATCTGAATTCCGGTCTCCC
DNA 2: TGGTGGCTACGACGGGATT
B11: UAUCGCA (DNA:RNA)
RNA: B1 RNA with G25U, A27U, U28C, A30C
DNA 1: CAATCTGAATTCCGGTCTCCC
DNA 2: TGGTGGCTACGACGGGATT
B12: CAGGUGG (DNA:RNA)
RNA: B2 RNA with A25C, C26A, U27G, A28G, C30G, C31G
DNA 1: CAATCTGAATTCCGGTCTCCC
DNA 2: TGGTGGCTACGACGGGATT
B13: CUCUUAU (DNA:RNA)
RNA: B1 RNA with G25C, A26U, A27C, G29U, A31U
DNA 1: CAATCTGAATTCCGGTCTCCC
DNA 2: TGGTGGCTACGACGGGATT
B14: GUCCCCC (DNA:RNA)
RNA: B2 RNA with A25G, C26U, U27C, A28C, U29C
DNA 1: CAATCTGAATTCCGGTCTCCC
DNA 2: TGGTGGCTACGACGGGATT
B15: AAGGUGG (DNA:RNA)
RNA: B2 RNA with C26A, U27G, A28G, C30G, C31G
DNA 1: CAATCTGAATTCCGGTCTCCC
DNA 2: TGGTGGCTACGACGGGATT
B16: ACUGAGG (DNA:RNA)
RNA: B2 RNA with A28G, U29A, C30G, C31G
DNA 1: CAATCTGAATTCCGGTCTCCC
DNA 2: TGGTGGCTACGACGGGATT
B17: CUCGGGA (DNA:RNA)
RNA: B1 RNA with G25C, A26U, A27C, U28G, A30G
DNA 1: CAATCTGAATTCCGGTCTCCC
DNA 2: TGGTGGCTACGACGGGATT
B18: ACCUGUA (DNA:RNA)
RNA: B1 RNA with G25A, A26C, A27C, A30U
DNA 1: CAATCTGAATTCCGGTCTCCC
DNA 2: TGGTGGCTACGACGGGATT
B19: UCCAAAU (DNA:RNA)
RNA: B2 RNA with A25U, U27C, U29A, C30A, C31U
DNA 1: CAATCTGAATTCCGGTCTCCC
DNA 2: TGGTGGCTACGACGGGATT
B20: GCCUGCC (DNA:RNA)
RNA: B2 RNA with A25G, U27C, A28U, U29G
DNA 1: CAATCTGAATTCCGGTCTCCC
DNA 2: TGGTGGCTACGACGGGATT

Biological target: T1, RBFOX1 RRM
Test: EMSA; HiTS-Eq, 1 nM pool, 10 min; buffer printed only for the single-RNA assays: 10 mM Tris pH 7.5, 150 mM NaCl, 3.4 mM EDTA, 0.001% NP-40, 30 C
Details: tags: His6 N-terminal (pET28a); label: 5' 32P
Procedure, shortened: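 These values rest on relative association constants, computed from read-count changes of each RNA species versus the control reaction and normalised to the cognate motif. Reads came from free RNA recovered by 8% native PAGE after purified RbFox RRM (wild type or mutant) at increasing concentrations was equilibrated for 10 min in 50 µL with 1 nM of a 5′-radiolabelled pool with 7 randomized nucleotides and DNA-annealed flanks.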

Row | Binder | binding signal
1 | B1 | 0.0162 KA relative to UGCAUGU
2 | B2 | 0.00194 KA relative to UGCAUGU
3 | B3 | 0.0284 KA relative to UGCAUGU
4 | B4 | 0.0191 KA relative to UGCAUGU
5 | B5 | 0.0192 KA relative to UGCAUGU
6 | B6 | 0.00213 KA relative to UGCAUGU
7 | B7 | 0.015 KA relative to UGCAUGU
8 | B8 | 0.0128 KA relative to UGCAUGU
9 | B9 | 0.00522 KA relative to UGCAUGU
10 | B10 | 0.00664 KA relative to UGCAUGU
11 | B11 | 0.02 KA relative to UGCAUGU
12 | B12 | 0.00878 KA relative to UGCAUGU
13 | B13 | 0.00198 KA relative to UGCAUGU
14 | B14 | 0.0163 KA relative to UGCAUGU
15 | B15 | 0.0131 KA relative to UGCAUGU
16 | B16 | 0.0126 KA relative to UGCAUGU
17 | B17 | 0.00233 KA relative to UGCAUGU
18 | B18 | 0.00505 KA relative to UGCAUGU
19 | B19 | 0.00115 KA relative to UGCAUGU
20 | B20 | 0.0261 KA relative to UGCAUGU

From PMC9911399, “Two distinct binding modes provide the RNA-binding protein RbFox with extraordinary sequence specificity”
